# Hit rate of the full screen: of about 370,000 compounds, about 150 (0.041%) were called active. Inconclusive results, whose numbers are uncertain, are shown with a selection of clear calls. The call rests on the fitted dose curve; in most records, active means well fitted inhibition curve with a large enough effect; inconclusive means small, poorly fitted or top-dose-only effect; inactive means flat fitted curve, though single readings scatter. Potencies of inconclusive entries are left out as doubtful fits.
# Target: Beta-lactamase (Escherichia coli (strain K12)) (UniProt P00811)
# UniProt P00811, sequence (P00811 whole entry, looked up): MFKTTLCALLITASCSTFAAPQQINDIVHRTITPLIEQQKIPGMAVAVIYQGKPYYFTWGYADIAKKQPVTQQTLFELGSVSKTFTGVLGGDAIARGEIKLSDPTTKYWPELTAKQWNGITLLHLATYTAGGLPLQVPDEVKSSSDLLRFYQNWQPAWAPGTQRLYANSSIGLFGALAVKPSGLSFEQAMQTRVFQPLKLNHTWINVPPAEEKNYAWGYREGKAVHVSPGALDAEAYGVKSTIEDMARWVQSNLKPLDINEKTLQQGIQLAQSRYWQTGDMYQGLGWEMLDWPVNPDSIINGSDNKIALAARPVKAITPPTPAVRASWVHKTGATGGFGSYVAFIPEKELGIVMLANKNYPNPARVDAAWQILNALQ
# Test: qHTS Inhibitors of AmpC Beta-Lactamase (assay with detergent); further: nearly all actives have a fitted effect of over 25% in size
# Details: AmpC hydrolysis of nitrocefin, absorbance 480 nm, 0.01% Triton; series mostly up to 114 µM
# Method in brief: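 20 mM phosphate pH 7.0 + 0.01% (detergent screen) or 0.0001% Triton X-100; 5.3 nM AmpC reagent; cpd preinc 15 min RT; nitrocefin (800 uM stock) to start; A480 q20 s × 4 min; Activity was normalised to no-enzyme and no-compound control wells.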
# Potency means the concentration at half of the fitted maximal effect; tags describe the fitted curve by direction and shape.
row,Structure (SMILES),Potency
1,CCCC(C(=O)NCCc1ccc(S(N)(=O)=O)cc1)c1ccccc1 (stereo unspecified),"inconclusive [inhibitor, full curve, poor fit]"
2,CC(C)NC(=O)CN1C(=O)CCn2nc(-c3cn(C)c4ccccc34)cc21,inactive
3,COc1ccccc1CNC(=O)c1ccc2c(=O)n(CC3CCCO3)c(=S)[nH]c2c1 (stereo unspecified),"inconclusive [inhibitor, full curve, poor fit]"
4,Cc1cc(-c2nnc3n2N=C(c2ccccc2)CS3)n[nH]1,inactive
5,CCSC1=C(C#N)C2(CCCCC2)C2=C(CC(C)(C)CC2=O)N1,inactive
6,COc1ccc(OC)c(C(c2nnnn2Cc2ccccc2)N2CCN(C)CC2)c1 (stereo unspecified),"inconclusive [inhibitor, partial curve, poor fit]"
7,COc1ccc(Cn2c(C(=O)O)c(CNCc3ccc(SC)cc3)c3ccc(OC)cc32)cc1,inactive
8,Cc1cc(NC(=O)CS(=O)(=O)c2cn(Cc3cccc(F)c3)c3ccccc23)no1,inactive
9,CCC(C)NC(=O)c1sc2nc(C)c(C(=O)Nc3ccc(C)cc3C)c(-c3ccc(NC(C)=O)cc3)c2c1N (stereo unspecified),inactive
10,CCn1c(=N)n(CC(=O)c2ccc(Cl)c(Cl)c2)c2ccccc21,inactive
11,CCN(CC)S(=O)(=O)c1ccc(OC(C)C)c(NC(=O)c2c3c(nc4ccccc24)CCN(Cc2ccccc2)C3)c1,inactive
12,COc1ccc(CNC(=O)COc2ccc(S(=O)(=O)NC(C)C)cc2)cc1,"inconclusive [inhibitor, full curve, poor fit]"
13,Cc1cccc(C(=O)OCC(=O)NC(=O)Cc2ccccc2)c1O,inactive
14,COc1cc(OC)c(NC(=O)CCNC(=O)Cn2cnc3ccccc3c2=O)cc1Cl,"inconclusive [inhibitor, single point]"
15,O=C1NC(=O)C2(CCCc3ccccc32)N1 (stereo unspecified),"inconclusive [inhibitor, partial curve, poor fit]"
16,COc1ccc(CCC(=O)Nc2ccc3c(c2)OCO3)cc1,"inconclusive [inhibitor, partial curve, poor fit]"
17,CC(=O)c1ccc(NC(=S)Nc2cccc(S(=O)(=O)Nc3c(C)n(C)n(-c4ccccc4)c3=O)c2)cc1,inactive
18,CC(NC(=O)c1cccs1)c1n[nH]c(=S)n1C (stereo unspecified),"inconclusive [inhibitor, partial curve]"
19,COC(=O)[C@@]1(Cc2ccc(OC)cc2)[C@H]2c3cc(C(=O)N4CCCC4)n(CCn4cc([N+](=O)[O-])nc4C)c3C[C@H]2CN1C(=O)c1ccccc1,"inconclusive [inhibitor, partial curve, poor fit]"
20,CCOCCCNC(=O)c1cc(C)nn1-c1ccccc1,"inconclusive [inhibitor, full curve]"
21,N#CC(c1ccccc1)c1ccc2c(C(F)(F)F)cc(C(F)(F)F)nc2n1 (stereo unspecified),inactive
22,Cn1c(=O)c2c(nc(NCc3ccc4c(c3)OCO4)n2Cc2ccccc2Cl)n(C)c1=O,inactive
23,C=CCn1c(SCC(=O)c2cccs2)nnc1-c1cccc(OC)c1,inactive

row,Structure (SMILES),Potency
1,O=C(CN1CCCN(S(=O)(=O)c2ccc(F)cc2)CC1)Nc1cccc(F)c1,"inconclusive [inhibitor, full curve, poor fit]"
2,COC(=O)C(=Cc1ccccc1[N+](=O)[O-])C(=O)OC,"inconclusive [inhibitor, full curve, poor fit]"
3,Cc1c(NC(=O)c2cc3c(s2)CCCC3)c(=O)n(-c2ccccc2)n1C,inactive
4,COc1ccccc1NC(=O)C(Cc1ccc(Cl)cc1)c1nn[nH]n1 (stereo unspecified),"inconclusive [inhibitor, full curve]"
5,CCOC(=O)c1c(NC(C)=O)sc2c(OC)c(Br)ccc12,inactive
6,COc1ccccc1/C=N/N1CCN(c2ccc(Cl)cc2)CC1,"inconclusive [inhibitor, single point]"
7,CC(=O)Nc1cc2nn(-c3ccccc3)nc2cc1C,inactive
8,Clc1cccc(-c2cc3nc4c(c(N5CCNCC5)n3n2)CCCC4)c1,inactive
9,CCn1cc(C(=O)NCc2ccc3c(c2)OCO3)c(=O)c2ccc(C)nc21,"inconclusive [inhibitor, full curve]"
10,Cn1cc(C(O)CN2CCCCC2)c2ccccc21 (stereo unspecified),"inconclusive [inhibitor, partial curve, poor fit]"
11,COC(=O)c1ccc(NS(=O)(=O)c2c(C)[nH]c(C)c2C(=O)N2CCCC2)cc1,"inconclusive [inhibitor, full curve, poor fit]"
12,CNC(=O)NC(=O)COc1ccc2oc3c(c2c1)CCCC3,"inconclusive [inhibitor, full curve]"
13,C=C(C)CSc1nc2ccccc2[nH]1,inactive
14,O=C(Nc1ccc(Cl)c(S(=O)(=O)N2CCCCC2)c1)c1ccncc1,inactive
15,Cc1ccc(OCc2nc(-c3ccccn3)no2)cc1,"inconclusive [inhibitor, full curve, poor fit]"
16,CCOC(=O)C1CCCN(Cc2ccc(OCc3ccccc3)c(OC)c2)C1 (stereo unspecified),"inconclusive [inhibitor, full curve]"
17,CC(C)c1nnc(SCC(=O)N2CCc3ccccc32)n1N,"inconclusive [inhibitor, full curve, poor fit]"
18,COc1cc(N2CCCC2)c(OC)cc1/C=C(/C#N)c1ccc(F)cc1,"inconclusive [inhibitor, single point]"
19,CCOC(=O)C1C(=O)C=C(Nc2ccccc2F)CC1c1ccccc1 (stereo unspecified),inactive
20,COc1ccc2cc3[n+](cc2c1OC)CCc1cc2c(cc1-3)OCO2,"inconclusive [inhibitor, full curve]"
21,COc1ccc(OC)c(-c2nc(C)sc2CC(=O)O)c1,"inconclusive [inhibitor, full curve, poor fit]"
22,Cc1ccc(C)c(C2=NNC(=NCc3ccccc3)SC2)c1,inactive
23,O=C(N/N=C/c1ccccc1)NC1CCCCC1,"inconclusive [inhibitor, full curve, poor fit]"

# Source: PubChem BioAssay AID485294 (National Center for Advancing Translational Sciences (NCATS), 2010)
